Substitutions are numbered along the chain they refer to.
B1: 人源化抗PD-L1单域抗体C1-hu7 (Fc fusion)
heavy: EVQLLESGGGLVQPGGSLRLSCAASGAAPCMAWFRQAPGKGLEGVAASVRGGLSPYYADVKGRFTISHDIPKNTMYLQMNSLRAEDTAVYYCAARATFYRCEGDASSYTYWGQGTLVTVSSGGGGS[sequence of human IgG4 Fc with S228P (EU numbers) not given]
B2: 人源化抗PD-L1单域抗体C1-hu8 (Fc fusion)
heavy: B1 heavy with L5V
B3: 人源化抗PD-L1单域抗体C1-hu10 (Fc fusion)
heavy: B1 heavy with L5V, G41E
B4: 人源化抗PD-L1单域抗体C1-hu17 (Fc fusion)
heavy: EVQLLESGGGLVQPGGSLRLSCAASGAAPCMAWFRQAPGKGLEGVAASVRGGLSPYYADSVKGRFTISHDIPKNTMYLQMNSLRAEDTAVYYCAARATFYRCEGDASSYTYWGQGTLVTVSSGGGGS[sequence of human IgG4 Fc with S228P (EU numbers) not given]
B5: 人源化抗PD-L1单域抗体C1-hu18 (Fc fusion)
heavy: B4 heavy with L5V
B6: 人源化抗PD-L1单域抗体C1-hu20 (Fc fusion)
heavy: B4 heavy with L5V, L42R
B7: 人源化抗PD-L1单域抗体C1-hu21 (Fc fusion)
heavy: B4 heavy with L5V, G41E, L42R

target: 生物素化的PD-L1抗原 (UniProt Q9NZQ7); experiment: competition ELISA, biotinylated PD-L1 on streptavidin, competitor PD-1 mFc 2.0 μg/mL; ratio = IC50 of chimeric antibody / IC50 of humanised antibody x 100%

相对竞争抑制活性，% [%] | Binder
84.8 | B1
93 | B2
98.1 | B3
86.8 | B4
93.4 | B5
99.7 | B6
101 | B7

target: His标签人PD-L1抗原 (human) (UniProt Q9NZQ7); experiment: ELISA, His-tagged human PD-L1 coated at 2.0 μg/mL; ratio = EC50 of chimeric antibody C1 (chC1) / EC50 of humanised antibody x 100%

相对结合活性，% [%] | Binder
89.8 | B1
91.2 | B2
88.2 | B3
75.2 | B4
83.6 | B5
79.4 | B6
76 | B7

Source: CN115246884A (SHANGHAI JUNSHI BIOSCIENCES CO LTD; JUNMENG BIOSCIENCES CO …, dated 2022)
